By IC50 is meant the dose at which the fit gives 50% viability; a fit beyond the top or the lowest dose is shown as a bound at that dose. For AUC the same curve is integrated over the 256-fold range of doses and scaled to a fraction; the more sensitive the line, the further below 1. For part of these data: Any top dose called inferred comes from the curve model; the source does not state it.
Columns and labels:
Experiment in all cases: Viability of human cancer cell lines after 72 h of drug (GDSC screen)
[1] = compound: CCC(=O)N1CCN(c2ccc(-n3c(=O)ccc4cnc5ccc(-c6cnc7ccccc7c6)cc5c43)cc2C(F)(F)F)CC1 [JW-7-52-1]; conditions: top dose 1.2 µM; top dose inferred
Method: (§1)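 Human cancer cell lines in 384-well plates, medium with 10% serum, drug for 72 h over a 256-fold dose range (nine 2-fold or five 4-fold steps up to the top dose). Adherent lines were fixed and stained with the nucleic acid dye Syto60, suspension lines read with resazurin; signal relative to control wells, capped at 0 and 100%. One two-parameter sigmoid per drug and line, fitted in a mixed model over all curves with the slope shared within a line.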

[2] = compound: CO[C@H]1C[C@@H]2CC[C@@H](C)[C@@](O)(O2)C(=O)C(=O)N2CCCC[C@H]2C(=O)O[C@H]([C@H](C)C[C@@H]2CC[C@@H](O)[C@H](OC)C2)CC(=O)[C@H](C)/C=C(\C)[C@@H](O)[C@@H](OC)C(=O)[C@H](C)C[C@H](C)/C=C/C=C/C=C/1C [Rapamycin]; conditions: top dose 0.1 µM; top dose inferred
Method: as §1

[3] = compound: CN(C)C/C=C/C(=O)Nc1ccc(C(=O)Nc2cccc(Nc3nccc(-c4cccnc4)n3)c2)cc1 [ZG-10]; conditions: top dose 10 µM; top dose inferred
Method: as §1

[4] = compound: Cn1nnc2c(C(N)=O)ncn2c1=O [Temozolomide]; conditions: top dose 30 µM
Method: as §1

[5] = compound: CN1CCc2c(c3ccccc3n2Cc2ccc(C(=O)NO)cc2)C1 [Tubastatin A]; conditions: top dose 20 µM
Method: as §1

[6] = compound: CCCC[C@@H](C=O)NC(=O)[C@H](CC(C)C)NC(=O)[C@H](CC(C)C)NC(=O)OCc1ccccc1 [Z-LLNle-CHO]; conditions: top dose 2.56 µM; top dose inferred
Method: as §1

[7] = compound: Oc1ccc2ccccc2c1SSc1c(O)ccc2ccccc12 [IPA-3]; conditions: top dose 32 µM; top dose inferred
Method: as §1

[8] = compound: O=C(NOCC1CC1)c1ccc(F)c(F)c1Nc1ccc(I)cc1Cl [CI-1040]; conditions: top dose 10 µM; top dose inferred
Method: as §1

[9] = compound: COc1cc2c(Oc3ccc(NC(=O)C4(C(=O)Nc5ccc(F)cc5)CC4)cc3F)ccnc2cc1OCCCN1CCOCC1 [XL-880]; conditions: top dose 5.12 µM; top dose inferred
Method: as §1

Row | Cell Line | AUC [1] | IC50 [1] [nM] | AUC [2] | IC50 [2] [nM] | AUC [3] | IC50 [3] [nM] | AUC [4] | IC50 [4] [nM] | AUC [5] | IC50 [5] [nM] | AUC [6] | IC50 [6] [nM] | AUC [7] | IC50 [7] [nM] | AUC [8] | IC50 [8] [nM] | AUC [9] | IC50 [9] [nM]
1 | EW-24 (Ewing sarcoma, semi-adherent) | 0.874 | 926 | 0.991 | > 100 | 0.715 | 2310 | 0.987 | > 30000 | 0.989 | > 20000 | 0.899 | > 2560 | 0.937 | > 32000 | 0.968 | > 10000 | 0.853 | 3280
2 | HSC-39 (stomach, suspension) | 0.796 | 475 | 0.991 | > 100 | 0.816 | 4580 | 0.991 | > 30000 | 0.864 | 13600 | 0.9 | 2480 | 0.989 | > 32000 | 0.956 | > 10000 | 0.974 | > 5120
3 | LAN-6 (neuroblastoma, adherent) | 0.86 | > 1200 | 0.96 | > 100 | 0.902 | > 10000 | 0.983 | > 30000 | 0.985 | > 20000 | 0.824 | 1910 | 0.82 | 23000 | 0.737 | 3420 | 0.866 | > 5120
4 | NCI-H1975 (lung adenocarcinoma, adherent) | 0.301 | 18.9 | 0.79 | 51.9 | 0.848 | 9160 | 0.981 | > 30000 | 0.853 | 19300 | 0.713 | 709 | 0.88 | > 32000 | 0.836 | 8020 | 0.787 | 2600
5 | TE-5 (oesophagus, adherent) | 0.417 | 43 | 0.838 | 82.6 | 0.699 | 2490 | 0.981 | > 30000 | 0.983 | > 20000 | 0.749 | 943 | 0.909 | > 32000 | 0.842 | 8660 | 0.842 | 4430
6 | NCI-H1304 (small cell lung carcinoma, suspension) | 0.854 | 1060 | 0.789 | 48.1 | 0.797 | 5130 | 0.981 | > 30000 | 0.985 | > 20000 | 0.898 | > 2560 | 0.984 | > 32000 | 0.978 | > 10000 | 0.779 | 2260
7 | CAS-1 (glioma, adherent) | 0.923 | > 1200 | 0.949 | > 100 | 0.812 | 7970 | 0.978 | > 30000 | 0.97 | > 20000 | 0.871 | > 2560 | 0.981 | > 32000 | 0.931 | > 10000 | 0.649 | 966
8 | COR-L95 (small cell lung carcinoma, adherent) | 0.804 | 713 | 0.97 | > 100 | 0.804 | 5940 | 0.985 | > 30000 | 0.977 | > 20000 | 0.974 | > 2560 | 0.971 | > 32000 | 0.981 | > 10000 | 0.762 | 2110
9 | no-11 (glioma, adherent) | 0.279 | 14.9 | 0.567 | 9.96 | 0.857 | > 10000 | 0.981 | > 30000 | 0.982 | > 20000 | 0.84 | 2450 | 0.867 | > 32000 | 0.885 | > 10000 | 0.614 | 714
10 | LB373-MEL-D (melanoma, adherent) | 0.61 | 149 | 0.96 | > 100 | 0.821 | 5620 | 0.989 | > 30000 | 0.975 | > 20000 | 0.733 | 725 | 0.949 | > 32000 | 0.843 | 6860 | 0.821 | 2880
11 | NCI-H1876 (small cell lung carcinoma, adherent) | 0.702 | 280 | 0.937 | > 100 | 0.628 | 1420 | 0.961 | > 30000 | 0.952 | > 20000 | 0.887 | > 2560 | 0.969 | > 32000 | 0.813 | 5490 | 0.687 | 1080
12 | CW-2 (large intestine, adherent) | 0.974 | > 1200 | 0.964 | > 100 | 0.981 | > 10000 | 0.988 | > 30000 | 0.97 | > 20000 | 0.988 | > 2560 | 0.988 | > 32000 | 0.955 | > 10000 | 0.885 | > 5120
13 | LB2518-MEL (melanoma, adherent) | 0.562 | 112 | 0.987 | > 100 | 0.926 | > 10000 | 0.986 | > 30000 | 0.974 | > 20000 | 0.763 | 970 | 0.968 | > 32000 | 0.53 | 757 | 0.808 | 2810
14 | COLO-800 (melanoma, adherent) | 0.988 | > 1200 | 0.871 | 89.4 | 0.412 | 361 | 0.981 | > 30000 | 0.963 | > 20000 | 0.987 | > 2560 | 0.968 | > 32000 | 0.957 | > 10000 | 0.802 | 2440
15 | DG-75 (Burkitt lymphoma, suspension) | 0.671 | 226 | 0.934 | > 100 | 0.534 | 776 | 0.977 | > 30000 | 0.984 | > 20000 | 0.875 | > 2560 | 0.969 | > 32000 | 0.934 | > 10000 | 0.77 | 1960
16 | NCI-SNU-16 (stomach, suspension) | 0.72 | 287 | 0.956 | > 100 | 0.587 | 1050 | 0.986 | > 30000 | 0.991 | > 20000 | 0.774 | 890 | 0.99 | > 32000 | 0.955 | > 10000 | 0.878 | 4160
17 | OCI-LY-19 (B-cell lymphoma, suspension) | 0.52 | 84.6 | 0.868 | 79.1 | 0.696 | 2110 | 0.986 | > 30000 | 0.826 | 10800 | 0.78 | 972 | 0.767 | 11000 | 0.717 | 2420 | 0.415 | 191
18 | ES7 (Ewing sarcoma, adherent) | 0.881 | > 1200 | 0.981 | > 100 | 0.593 | 1130 | 0.982 | > 30000 | 0.8 | 9950 | 0.942 | > 2560 | 0.828 | 20500 | 0.879 | > 10000 | 0.256 | 62.5
19 | SNU-C1 (large intestine, suspension) | 0.655 | 249 | 0.544 | 8.74 | 0.6 | 1340 | 0.962 | > 30000 | 0.973 | > 20000 | 0.948 | > 2560 | 0.973 | > 32000 | 0.363 | 218 | 0.903 | > 5120
20 | SK-MEL-1 (melanoma, suspension) | 0.871 | 880 | 0.978 | > 100 | 0.936 | > 10000 | 0.993 | > 30000 | 0.982 | > 20000 | 0.963 | > 2560 | 0.992 | > 32000 | 0.516 | 688 | 0.846 | 3000
21 | ES5 (Ewing sarcoma, adherent) | 0.909 | > 1200 | 0.983 | > 100 | 0.643 | 1660 | 0.977 | > 30000 | 0.695 | 4840 | 0.968 | > 2560 | 0.848 | 29300 | 0.938 | > 10000 | 0.37 | 132
22 | RL (B-cell lymphoma, suspension) | 0.982 | > 1200 | 0.99 | > 100 | 0.723 | 2520 | 0.989 | > 30000 | 0.834 | 11500 | 0.938 | > 2560 | 0.852 | 21700 | 0.89 | 9920 | 0.532 | 389
23 | KCL-22 (chronic myeloid leukaemia, suspension) | 0.407 | 43.5 | 0.782 | 34.9 | 0.648 | 1490 | 0.991 | > 30000 | 0.869 | 13600 | 0.739 | 671 | 0.75 | 9000 | 0.881 | 7620 | 0.515 | 349
24 | SK-N-DZ (neuroblastoma, adherent) | 0.623 | 163 | 0.983 | > 100 | 0.835 | 6470 | 0.987 | > 30000 | 0.987 | > 20000 | 0.865 | 2210 | 0.758 | 11000 | 0.929 | > 10000 | 0.718 | 1310
25 | SK-MM-2 (myeloma, suspension) | 0.576 | 123 | 0.933 | > 100 | 0.831 | 6710 | 0.983 | > 30000 | 0.966 | > 20000 | 0.812 | 1450 | 0.889 | > 32000 | 0.978 | > 10000 | 0.586 | 555
26 | KURAMOCHI (ovary, adherent) | 0.37 | 31 | 0.766 | 42.4 | 0.748 | 3660 | 0.982 | > 30000 | 0.913 | > 20000 | 0.775 | 1180 | 0.928 | > 32000 | 0.931 | > 10000 | 0.701 | 1300
27 | MFM-223 (breast, adherent) | 0.988 | > 1200 | 0.989 | > 100 | 0.611 | 1260 | 0.987 | > 30000 | 0.985 | > 20000 | 0.988 | > 2560 | 0.811 | 16800 | 0.909 | > 10000 | 0.593 | 572
28 | OCI-AML3 (acute myeloid leukaemia, suspension) | 0.841 | 668 | 0.991 | > 100 | 0.636 | 1400 | 0.99 | > 30000 | 0.793 | 7690 | 0.81 | 1110 | 0.717 | 7410 | 0.618 | 1260 | 0.871 | 3680
29 | SK-PN-DW (Ewing sarcoma, adherent) | 0.456 | 56.6 | 0.609 | 12.6 | 0.743 | 3200 | 0.968 | > 30000 | 0.817 | 11800 | 0.801 | 1310 | 0.742 | 10200 | 0.906 | > 10000 | 0.416 | 187
